Values joined by “and” are separate entries in the source; they are usually repeats but may differ in a detail not shown here. Equal values may be shown once. Screen size: about 420,000 compounds; about 50,000 (12%) were called active. Inconclusive results, whose numbers are uncertain, are shown with a selection of clear calls. The call rests on the fitted dose curve; in most records, active means well fitted inhibition curve with a large enough effect; inconclusive means small, poorly fitted or top-dose-only effect; inactive means flat fitted curve, though single readings scatter. Potencies of inconclusive entries are doubtful fits and often do not repeat.
assay: qHTS for Inhibitors of human tyrosyl-DNA phosphodiesterase 1 (TDP1): qHTS in cells in presence of CPT; conditions: chicken DT40 Tdp1-/-;hTDP1 cells + 20 nM CPT, ATP luminescence, 48 h; series mostly up to 46.2 µM; further: nearly all actives have a fitted effect of over 55% in size
Summary of the method: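 Cell growth measured by CellTiter-Glo luminescence after a minimum 48 h, 37 C compound exposure with 20 nM CPT in Tdp1-knockout DT40 cells stably expressing hTDP1, seeded 400/well; qHTS titration format.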
Potency means the concentration at half of the fitted maximal effect; tags describe the fitted curve by direction and shape.

Question: With COC(=O)C1Sc2[nH]c(=O)sc2C2c3ccccc3OC(=O)C12 (stereo not given) as the compound, how does the Potency read?
Answer: inactive

Question: Which Potency does the source give for COC(=O)CCSc1cc(NCCOC(C)=O)c([N+](=O)[O-])c2nonc12 here?
Answer: active: 11.2 µM

Question: For Cc1ccc(NC(=O)COC(=O)c2ccc(NC(=O)CC#N)cc2)cc1S(=O)(=O)N1CCOCC1, which Potency is on record?
Answer: inactive

Question: For CCc1cc2ccccc2nc1SCC(=O)N1CCN(C(=O)c2ccco2)CC1, which Potency is on record?
Answer: inconclusive: 9.2 µM [inhibitor, partial curve]

Question: With O=C(N/N=C/c1cccs1)c1ccc2nc[nH]c2c1 as the compound, how does the Potency read?
Answer: inactive

Question: With C=CCSc1nc(N(CC)CC)c2sccc2n1 as the compound, how does the Potency read?
Answer: inconclusive: 29.1 µM [inhibitor, single point]

Question: Which Potency does the source give for CN(Cc1ccccc1)c1nc2c(c(=O)[nH]c(=O)n2C)n1Cc1ccccc1Cl here?
Answer: inconclusive: 20.6 µM [inhibitor, single point]

Question: For N#CCCn1cc(C=C(C#N)C#N)c(-c2ccc(-c3ccccc3)cc2)n1, which Potency is on record?
Answer: inconclusive: 29.1 µM [inhibitor, single point]

Question: For Cc1cccc(NC(=O)Cn2cc(S(=O)(=O)Cc3ccccc3Cl)c3ccccc32)c1, which Potency is on record?
Answer: inconclusive: 20.6 µM [inhibitor, single point]

Question: With COc1cccc(OC)c1CN1CCC2(CCC(CNC(=O)c3ccccc3)O2)CC1 (stereo not given) as the compound, how does the Potency read?
Answer: inactive

Question: Which Potency does the source give for O=C(CN1CCN(c2cccc(Cl)c2)CC1)NC1CCCc2ccccc21 (stereo not given) here?
Answer: inconclusive: 29.1 µM [inhibitor, single point]

Question: For O=C(CC1N=C2c3ccccc3N=C(SCC(=O)Nc3ccc(F)cc3)N2C1=O)NCc1ccc2c(c1)OCO2 (stereo not given), which Potency is on record?
Answer: inconclusive: 29.1 µM [inhibitor, single point]

Question: Which Potency does the source give for O=C(CN1C(=O)CSc2ccc(S(=O)(=O)N3CCOCC3)cc21)NCCc1ccccc1 here?
Answer: inactive

Question: Which Potency does the source give for COc1ccccc1CNC(=O)CSc1ccsc1[N+](=O)[O-] here?
Answer: inconclusive: 13 µM [inhibitor, partial curve, poor fit]

Question: Which Potency does the source give for O=C(/C=C\c1ccccc1)NCC(=O)N/N=C/c1ccc(O)cc1O here?
Answer: active: 20.6 µM

Question: With Cc1ccc(OCC(=O)NC(=S)Nc2ccc(Br)cn2)cc1C as the compound, how does the Potency read?
Answer: inactive

Question: Which Potency does the source give for C=CCNC(=O)c1cc2nc(C3CC3)cc(C(F)F)n2n1 here?
Answer: inconclusive: 3.16 µM [inhibitor, single point]

Question: Which Potency does the source give for Cc1cccc(NC(=S)N/N=C/c2cccc(O)c2)c1C here?
Answer: active: 2.59 µM

Question: With CCCn1c2ccccc2c2nnc(SC(CC)C(=O)Nc3cc(C)on3)nc21 (stereo not given) as the compound, how does the Potency read?
Answer: inconclusive: 18.4 µM [inhibitor, single point]

Question: For COc1ccc(-n2cc(-c3ccc4c(c3)OCO4)n(CC(=O)Nc3cccc(C)c3)c2=O)cc1, which Potency is on record?
Answer: active: 23.1 µM

Question: Which Potency does the source give for CCN(CC)c1ncnc2sc3c(c12)CCC3 here?
Answer: inconclusive: 20.6 µM [inhibitor, single point]

Question: With CCOC(=O)C1=CCN(S(=O)(=O)c2ccc(C)cc2)C1c1cccc(C)c1 (stereo not given) as the compound, how does the Potency read?
Answer: inconclusive: 18.4 µM [inhibitor, single point]

Question: For CCN(CC)S(=O)(=O)c1cccc(-c2nnc(SC(C)C(N)=O)n2CCc2ccccc2)c1 (stereo not given), which Potency is on record?
Answer: inconclusive: 20.6 µM [inhibitor, single point]

Question: For CCNC(=O)C1(C)CCN(Cc2ccc(OC(F)(F)F)cc2)C1 (stereo not given), which Potency is on record?
Answer: inactive

Question: Which Potency does the source give for Cc1ccccc1Cn1c(C(=O)OC(C)C)cc2c1ccn2C here?
Answer: inconclusive: 20.6 µM [inhibitor, single point]

Question: Which Potency does the source give for O=C(NCCN1CCOCC1)c1cc2sccc2n1Cc1ccc(Cl)cc1 here?
Answer: inconclusive: 25.9 µM [inhibitor, single point]

Question: With CSc1ncc(Cl)c(C(=O)N(Cc2ccc(C(C)C)cc2)C2CCS(=O)(=O)C2)n1 (stereo not given) as the compound, how does the Potency read?
Answer: inconclusive: 18.4 µM [inhibitor, single point]

Question: Which Potency does the source give for C[C@H](CO)N1C[C@H](C)[C@@H](CN(C)C)Oc2c(NC(=O)c3ccncc3)cccc2C1=O here?
Answer: inactive

Question: For Cc1onc(-c2ccccc2Cl)c1C(=O)Nc1nnc(-c2ccc(Cl)cc2Cl)s1, which Potency is on record?
Answer: inconclusive: 23.1 µM [inhibitor, single point]

Question: With Cc1ccc(CS(=O)(=O)CCC(=O)NCCCN2CCCC2)cc1 as the compound, how does the Potency read?
Answer: inconclusive: 0.82 µM [inhibitor, partial curve]

Question: With Cc1ccccc1Cn1c(SCc2ccc(C(=O)NCCc3ccccc3)cc2)nc2ccncc21 as the compound, how does the Potency read?
Answer: active: 20.6 µM

Question: With COc1ccc(CCN(C)C(=O)C23CC4CC(CC(Cl)(C4)C2)C3)cc1OC as the compound, how does the Potency read?
Answer: inconclusive: 23.1 µM [inhibitor, single point]

Question: With CCCCCCN1C=CC(=C/C=C(\C#N)C(=O)OCC)C=C1 as the compound, how does the Potency read?
Answer: inconclusive: 16.4 µM [inhibitor, single point]

Question: With CC(C)CCNc1ncnc2c1cnn2-c1cccc(Cl)c1 as the compound, how does the Potency read?
Answer: inconclusive: 29.1 µM [inhibitor, single point]

Question: With CN(C(=O)COC(=O)CNC(=O)c1ccccc1F)C1CCCCC1 as the compound, how does the Potency read?
Answer: inactive

Question: Which Potency does the source give for NS(=O)(=O)c1ccc(NC(=S)N2CCN(c3ccccc3)CC2)cc1 here?
Answer: inconclusive: 29.1 µM [inhibitor, single point]

Question: With CN1CC=C2C(C#N)=C(N)C(C#N)(C#N)[C@H](c3cccc(Cl)c3)C2C1 (stereo not given in full) as the compound, how does the Potency read?
Answer: inconclusive: 29.1 µM [inhibitor, single point]

Question: Which Potency does the source give for COc1cc(S(=O)(=O)N2CCn3cccc3C2C)ccc1NC(C)=O (stereo not given) here?
Answer: inactive

Question: For NS(=O)(=O)c1cccc(NC(=O)COC(=O)CCSc2ccccc2)c1, which Potency is on record?
Answer: inactive

Question: Which Potency does the source give for COc1cc(-c2nnc(SCC(=O)N3c4ccccc4Sc4ccccc43)o2)cc(OC)c1OC here?
Answer: inconclusive: 29.1 µM [inhibitor, single point]

Question: With O=C(c1ccccc1NS(=O)(=O)c1ccc(Br)s1)N1CCCC1 as the compound, how does the Potency read?
Answer: inactive

Question: Which Potency does the source give for O=C(c1cc2cc(Br)ccc2o1)N1CCCCC1 here?
Answer: inconclusive: 29.1 µM [inhibitor, single point]

Question: Which Potency does the source give for O=C(NC1CCCC1)c1cccc2c1C(=O)c1ccc(Cl)cc1S2(=O)=O here?
Answer: inactive

Question: With CC1C2CC(C/C2=N/NC(=O)c2cccs2)C1(C)C (stereo not given) as the compound, how does the Potency read?
Answer: inconclusive: 20.6 µM [inhibitor, single point]

Question: Which Potency does the source give for COc1ccc(Br)c(C(=O)OCC(=O)NC2CCCCCC2)c1 here?
Answer: inconclusive: 29.1 µM [inhibitor, single point]

Question: Which Potency does the source give for O=C(c1cccc(S(=O)(=O)N2CCOCC2)c1)N1CCN(C/C=C/c2ccccc2)CC1 here?
Answer: inconclusive: 29.1 µM [inhibitor, single point]

Question: With COc1cc(F)ccc1-c1csc(C(O)c2ccccc2)n1 (stereo not given) as the compound, how does the Potency read?
Answer: active: 25.9 µM

Question: With CN(C)CCC(=O)C(Cc1ccccc1)c1ccccc1 (stereo not given) as the compound, how does the Potency read?
Answer: active: 5.17 µM

Question: With Cc1ccc(S(=O)(=O)N(Cc2ccccc2)c2ccccc2C(=O)Nc2ccccc2C(=O)NCc2ccco2)cc1 as the compound, how does the Potency read?
Answer: active: 23.1 µM

Question: Which Potency does the source give for CC(C)N(C(=O)CSc1nc(COc2ccccc2)nc2ccccc12)C(C)C here?
Answer: active: 23.1 µM

Question: For Cc1ccc(-n2c(SCC(=O)Nc3c(C)cccc3C)nc(O)c(C)c2=O)cc1, which Potency is on record?
Answer: inactive

Question: For O=C(CN1C(=O)NC2(CCc3ccccc32)C1=O)NCc1ccc(F)cc1 (stereo not given), which Potency is on record?
Answer: inactive

Question: Which Potency does the source give for CCC1CN(C(=O)N2CCC(C(=O)NCc3ccco3)CC2)c2ccccc2O1 (stereo not given) here?
Answer: inactive and inconclusive: 29.1 µM [inhibitor, single point]

Question: With COc1ccc2c(C#N)c3ccccn3c2c1 as the compound, how does the Potency read?
Answer: inconclusive: 18.4 µM [inhibitor, partial curve]

Question: Which Potency does the source give for COCCn1ccc(O)c(Cc2ccccc2)c1=O here?
Answer: inactive

Question: Which Potency does the source give for CC(C)c1ccc(NC(=O)Cn2c(=O)n(Cc3nc(-c4ccccc4)no3)c(=O)c3cc4c(cc32)OCO4)cc1 here?
Answer: inconclusive: 9.2 µM [inhibitor, partial curve]

Question: Which Potency does the source give for CCOc1ccccc1NC(=O)CN1C(=O)C2(SCC(=O)N2c2ccc(C)cc2)c2ccccc21 (stereo not given) here?
Answer: inconclusive: 20.6 µM [inhibitor, single point]

Question: For CC(=O)c1ccc(OC2(C)CCN(Cc3ccc(C)cc3)C2)cc1 (stereo not given), which Potency is on record?
Answer: inconclusive: 20.6 µM [inhibitor, partial curve, poor fit]

Question: With CCOC(=O)/C(C#N)=C1\C(=O)N(Cc2ccccc2)c2ccccc21 as the compound, how does the Potency read?
Answer: active: 9.2 µM

Question: For COc1ccc(OC(C)C(=O)N2CCCc3ccccc32)cc1 (stereo not given), which Potency is on record?
Answer: inconclusive: 14.6 µM [inhibitor, single point]

Question: For CNc1nc(-c2c[nH]c3ccccc23)cs1, which Potency is on record?
Answer: inconclusive: 29.1 µM [inhibitor, single point]

Question: Which Potency does the source give for O=C(C=CC=Cc1ccccc1)c1ccc([N+](=O)[O-])cc1 here?
Answer: active: 23.1 µM

Question: For COc1ccccc1N(CC(=O)N1CCCCC1C)S(=O)(=O)c1ccc(Cl)cc1 (stereo not given), which Potency is on record?
Answer: inconclusive: 23.1 µM [inhibitor, single point]

Question: With COc1ccc(C(c2c(C)[nH]n(C(N)=S)c2=O)C(C#N)C#N)cc1 (stereo not given) as the compound, how does the Potency read?
Answer: active: 23.1 µM

Question: Which Potency does the source give for CC(=O)Nc1ccc(C(=O)N2CCCCC2c2cc(C(=O)Nc3cccc4c3CCCC4)no2)cc1 (stereo not given) here?
Answer: inconclusive: 20.6 µM [inhibitor, single point]

Question: Which Potency does the source give for O=C(c1cccc(-c2cncc3nccn23)c1)N1CCOCC1 here?
Answer: inactive

Question: Which Potency does the source give for CN(CC(=O)Nc1ccc(Cl)c(C(F)(F)F)c1)CC(=O)NC1CCCCC1 here?
Answer: active: 16.4 µM

Question: For C=CCC[C@@H](Cc1ccc(F)cc1)C(=O)OC[C@H](Cc1c[nH]c2ccccc12)NC(=O)[C@H](CC=C)CC(=O)N(CCO)Cc1ccccc1, which Potency is on record?
Answer: active: 14.6 µM

Question: With C[C@@H](c1ccccc1)N1C[C@H](COCc2ccccc2)Oc2cc(N3CCC[C@@H]3CO)ccc2S1(=O)=O as the compound, how does the Potency read?
Answer: inconclusive: 20.6 µM [inhibitor, single point]

Question: For CC(=O)Nc1ccc(-c2ccnc3c2CC(C(=O)Nc2cccc(C(C)=O)c2)O3)cc1 (stereo not given), which Potency is on record?
Answer: inconclusive: 25.9 µM [inhibitor, single point]
